# Source: PubChem BioAssay AID2147 (National Center for Advancing Translational Sciences (NCATS), 2009)
# Out of some 230,000 compounds screened, about 3,600 (1.6%) were called active. Inconclusive means that the source gave no clear call. Such entries were picked first, then a sample of the others. Calls come from the whole dose curve; as a rule, active = well fitted inhibition curve with a large enough effect (not every such curve was filed as active); inconclusive = small, poorly fitted or top-dose-only effect, or another doubt; inactive = no such curve, though single readings can be large or run the other way. A potency beside an inconclusive call is a rough fit, not a confirmed value.
# Target: Lysine-specific demethylase 4E (Homo sapiens) (UniProt B2RXH2)
# UniProt B2RXH2, sequence (B2RXH2 whole entry, looked up, the tested form may be a part): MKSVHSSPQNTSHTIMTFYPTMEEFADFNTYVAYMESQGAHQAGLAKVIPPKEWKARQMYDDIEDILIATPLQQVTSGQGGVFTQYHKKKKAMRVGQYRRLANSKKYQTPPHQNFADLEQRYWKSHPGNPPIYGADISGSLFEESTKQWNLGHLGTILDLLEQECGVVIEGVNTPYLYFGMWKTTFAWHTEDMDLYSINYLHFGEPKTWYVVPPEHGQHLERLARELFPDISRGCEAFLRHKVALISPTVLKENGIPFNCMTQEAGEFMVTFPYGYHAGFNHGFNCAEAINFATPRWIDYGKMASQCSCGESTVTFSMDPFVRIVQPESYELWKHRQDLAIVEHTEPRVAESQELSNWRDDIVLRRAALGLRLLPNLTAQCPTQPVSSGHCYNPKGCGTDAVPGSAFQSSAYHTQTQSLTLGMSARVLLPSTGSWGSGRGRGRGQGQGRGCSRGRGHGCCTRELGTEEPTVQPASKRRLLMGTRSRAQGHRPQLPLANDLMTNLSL
# Test: qHTS Assay for Inhibitors of Human Jumonji Domain Containing 2E (JMJD2E)
# Details: JMJD2E catalytic domain, FDH-coupled NADH fluorescence (FDH is formaldehyde dehydrogenase); series mostly up to 57.1 µM; activity change, negative = inhibition: at the top concentration
# Note: nearly all actives have a fitted effect of over 50% in size.
# Potency is the fitted concentration of half-maximal effect; tags give direction and shape of the fitted curve.
# 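Throughout, for activity change, negative = inhibition: 0% = wells with enzyme and -100% = buffer wells without enzyme.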
SMILES,Potency,"activity change, negative = inhibition"
CC(C)Cc1nc(N2CCCCC2)c(C#N)c2c1CCC2,"inconclusive: 35.5 µM [inhibitor, single point]",–
CCN(CC)S(=O)(=O)c1cc(NC(=O)COC(=O)c2ccc(NC(=O)CC#N)cc2)ccc1C,active: 3.98 µM,–
N#Cc1nc(-c2cccs2)oc1NCc1ccccc1,"inconclusive: 31.6 µM [inhibitor, partial curve]",–
CC(C)NC[C@@H](O)COc1ccc(CCOCC2CC2)cc1,inactive,–
O=S(=O)(Cc1ccccc1)c1ccccc1-c1nnc(-c2ccccc2)o1,"inconclusive: 31.6 µM [inhibitor, single point]",–
COc1cc(/C=C/C(=O)O)cc(S(=O)(=O)N(CC(C)C)CC(C)C)c1OC,"inconclusive: 39.8 µM [inhibitor, single point]",–
CCC(CC)COC(=O)C(C#N)c1nc2ccccc2nc1N1CCN(CC)CC1 (stereo not drawn),"inconclusive: 28.2 µM [inhibitor, single point]",–
COc1cc(CN2CCN(C(=O)CC(C)C)CC2)cc(OC)c1O,"inconclusive: 39.8 µM [inhibitor, single point]",–
Cc1cccc(CNc2ncncc2-c2cccc(C#N)c2)c1,"inconclusive: 35.5 µM [inhibitor, single point]",–
C=CC[N+](C)(C)C/C(Cl)=C(\Cl)c1ccccc1,–,inactive: -3.64%
Cc1cccc(N(C(=O)Cn2nnc3ccccc32)C(C(=O)NC(C)(C)C)c2ccsc2)c1 (stereo not drawn),–,inactive: 5.21%
N#Cc1cnc(SCCc2ccccc2)nc1N,–,inactive: -0.65%
CC(=O)NC1C(=O)SC1(C)C (stereo not drawn),"inconclusive: 25.1 µM [inhibitor, partial curve]",–
COc1ccc(/C=C/C=C2\NC(=S)NC2=O)cc1,–,inactive: 0.644%
NC1=NN=C(N2N=C(c3ccc(Br)cc3)CC2(O)C(F)(F)F)n2ncnc2C1 (stereo not drawn),"inconclusive: 25.1 µM [inhibitor, partial curve]",–
COc1ccc(CN2CN(S(=O)(=O)c3cccs3)c3nc4ccccc4nc32)cc1,"inconclusive: 39.8 µM [inhibitor, single point]",–
c1ccc2c(CSCCc3ccncc3)cccc2c1,–,inactive: 0.574%
COC(=O)c1ccn(-c2nc(-c3ccco3)cc(C(F)(F)F)n2)n1,"inconclusive: 25.1 µM [inhibitor, partial curve]",–
O=C(Nc1ncnc2sc3c(c12)CCCCC3)c1ccco1,"inconclusive: 8.91 µM [inhibitor, single point]",–
CCCCCc1cc(=O)oc2c(C(CCN3CCCC(C)C3)c3ccc(N(C)C)cc3)c(OC)cc(OC)c12 (stereo not drawn),"inconclusive: 39.8 µM [inhibitor, single point]",–
CN(C)c1ccc(C=C2C(=O)OC3(CCCC3)OC2=O)cc1,"inconclusive: 0.01 µM [inhibitor, full curve, poor fit]",–
CCC1=[N+](CC(=O)c2ccc(Br)cc2)CCn2c(C)ccc21,"inconclusive: 31.6 µM [inhibitor, single point]",–
Cn1c(C(=O)NCc2ccco2)cc2c(=O)[nH]c3ccccc3c21,"inconclusive: 35.5 µM [inhibitor, partial curve]",–
COc1cc(/C=C/C(=O)O)cc(S(=O)(=O)NCc2ccco2)c1OC,"inconclusive: 39.8 µM [inhibitor, single point]",–
COc1ccc(CN2CCc3ccccc3C2)c(OC)c1,"inconclusive: 22.4 µM [inhibitor, single point]",–

SMILES,Potency,"activity change, negative = inhibition"
CS(=O)(=O)Nc1ccc(C(=O)Nc2ccc(S(=O)(=O)N3CCCC3)cc2)cc1,–,inactive: -26.7%
COc1cc(/C=N/NC(=O)CCN2CCN(C(c3ccccc3)c3ccccc3)CC2)ccc1O,"inconclusive: 31.6 µM [inhibitor, single point]",–
Cn1c(=O)c(Oc2cc(Cl)cc(Cl)c2)nc2ccccc21,"inconclusive: 7.08 µM [inhibitor, single point]",–
CCOC(=O)c1c(C)[nH]c(C2=NNC(=Nc3ccccc3OC)SC2)c1C,–,inactive: -6.29%
COCCNC(=S)Nc1cc(OC)c(OC)cc1C#N,–,inactive: 0.413%
CCc1ccc(CN(C)C(=O)CCc2nnc(-c3ccc(-c4ccccc4)cc3)o2)nc1,"inconclusive: 28.2 µM [inhibitor, single point]",–
CCCOC(=O)c1cc2ccccc2oc1=O,"inconclusive: 28.2 µM [inhibitor, single point]",–
CCC(=O)N1N=C(c2ccc(NS(C)(=O)=O)cc2)CC1c1ccc(C)cc1 (stereo not drawn),"inconclusive: 31.6 µM [inhibitor, partial curve]",–
Cc1cc(C)nc(NS(=O)(=O)c2ccc(NC(=O)CN3C(=O)S/C(=C\c4ccccc4)C3=O)cc2)n1,"inconclusive: 39.8 µM [inhibitor, single point]",–
S=c1[nH]nc(-c2ccccc2)o1,"inconclusive: 17.8 µM [inhibitor, partial curve]",–
CC(/C=N/NC(=O)CSc1nnc(SCc2ccccc2)s1)=C\c1ccco1,"inconclusive: 2.82 µM [inhibitor, full curve, poor fit]",–
CCOC(=O)C1CCCN(C(=O)CN2CCN(Cc3ccc(Cl)cc3)C2=O)C1 (stereo not drawn),–,inactive: -4.46%
Cc1cc(=O)n(C)c(=O)n1CCCNc1ccccc1,"inconclusive: 35.5 µM [inhibitor, single point]",–
COc1ccc(CNc2ncncc2-c2ccc3c(c2)OCO3)c(OC)c1,"inconclusive: 25.1 µM [inhibitor, single point]",–
COc1ccc(-c2cc(C(=O)c3c(N)n(C)c(=O)n(C)c3=O)c3ccccc3n2)cc1,"inconclusive: 25.1 µM [inhibitor, single point]",–
Cc1cccc2sc(NNC(=O)c3ccc(S(=O)(=O)N4CCc5ccccc5C4)cc3)nc12,–,inactive: 10.4%
Cc1ccn2c(NCc3ccccc3)c(-c3cccs3)nc2c1,"inconclusive: 31.6 µM [inhibitor, partial curve]",–
COc1ccc2nc(Nc3nc4ccc(NC(C)=O)cc4s3)sc2c1,"inconclusive: 28.2 µM [inhibitor, partial curve]",–
O=C(c1ccc(Cl)cc1)N1N=C(c2ccccn2)CC1(O)C(F)(F)F (stereo not drawn),"inconclusive: 39.8 µM [inhibitor, single point]",–
CN1CCN(C(=O)NC2CCCCC2)CC1,"inconclusive: 22.4 µM [inhibitor, single point]",–
O=C(O)Cc1ccc(NC(=O)C2CC=CCC2C(=O)O)cc1 (stereo not drawn),–,inactive: 4.24%
Nc1c(C(=O)Nc2ccccc2)c2nc3ccccc3nc2n1-c1ccc(O)cc1,"inconclusive: 28.2 µM [inhibitor, partial curve]",–
COc1c2ccoc2nc2c(OC)c(OCC(O)C(C)(C)O)ccc12 (stereo not drawn),"inconclusive: 28.2 µM [inhibitor, partial curve]",–
COc1ccc(C2C(C#N)=C(C)NC3=C2C(=O)c2ccccc23)cc1 (stereo not drawn),"inconclusive: 35.5 µM [inhibitor, single point]",–
Cc1ccc2c(c1)-c1cc(C)nn1C(c1ccc3c(c1)OCO3)N2 (stereo not drawn),"inconclusive: 28.2 µM [inhibitor, partial curve]",–

SMILES,Potency,"activity change, negative = inhibition"
Cc1ccc(C(=O)NC(=S)Nc2cccc(NC(=O)c3ccccc3Cl)c2)cc1[N+](=O)[O-],–,inactive: 2.27%
CC(O)CNc1cnccn1 (stereo not drawn),"inconclusive: 28.2 µM [inhibitor, partial curve]",–
CCOC(=O)c1ccc(NC(=O)CN2CCc3ccccc3C2)cc1,"inconclusive: 25.1 µM [inhibitor, single point]",–
Cc1ccc(C(=S)N2CCN(Cc3ccccc3)CC2)cc1,–,inactive: -13.8%
COc1ccc(-c2noc(CCC(=O)Nc3cc(OC)ccc3OC)n2)cc1,–,inactive: -0.342%
CC1=C(CC(=O)c2ccccc2)C(=O)c2ccccc2C1=O,"inconclusive: 8.91 µM [inhibitor, partial curve]",–
C=CCN1CCc2cc(O)c(O)cc2[C@H](c2ccccc2)C1,active: 25.1 µM,–
NC(=O)c1ccc(NC(=O)CCc2nc3ccccc3s2)cc1,–,inactive: -4.74%
Cc1cc(-c2ccc(N3CCOCC3)cc2)nc2ccccc12,"inconclusive: 28.2 µM [inhibitor, partial curve]",–
COc1ccc(CC(=O)Nc2nc3ccccc3s2)cc1S(=O)(=O)N1CCOCC1,–,inactive: 6.31%
Cc1ccc(S(=O)(=O)N/N=C/c2ccc(C(=O)O)cc2)cc1,–,inactive: 4.22%
O=C(O)c1ccccc1C(=O)Nc1nccs1,–,inactive: -5.21%
O=C(CSc1n[nH]c(-c2ccccc2Br)n1)NCCN1C(=O)CSC1=O,–,inactive: -0.87%
COc1ccccc1Nc1nc(N)nc(CN2CCN(Cc3ccccc3)CC2)n1,–,inactive: -1.51%
Cc1nn(Cc2ccccc2)c2c1C(c1ccco1)C(C#N)=C(N)O2 (stereo not drawn),–,inactive: -6.99%
O=CN1CCN(c2ncnc3c2nnn3Cc2c(F)cccc2Cl)CC1,"inconclusive: 31.6 µM [inhibitor, partial curve]",–
COC(=O)c1cc(N2CCNCC2)nc2ccccc12,"inconclusive: 31.6 µM [inhibitor, partial curve]",–
CC(CNC(=S)Nc1cc(F)cc(F)c1)CSc1ccc(Cl)cc1 (stereo not drawn),–,inactive: -6.65%
Cc1ccc(-n2c(=O)c3sccc3n(CC(=O)NCc3ccco3)c2=O)cc1,–,inactive: 0.737%
CC1CN(c2ccc(NS(=O)(=O)c3ccccc3)cc2C(=O)O)CC(C)O1 (stereo not drawn),"inconclusive: 11.2 µM [inhibitor, partial curve]",–
CCn1c(C(=O)N2CCC(C(=O)N3CCN(c4ccccn4)CC3)CC2)cc2sccc21,"inconclusive: 35.5 µM [inhibitor, single point]",–
Cc1ccc2nc(-c3ccc4c(c3)OCCO4)cc(C(=O)O)c2c1,"inconclusive: 22.4 µM [inhibitor, partial curve]",–
COc1ccc(Cn2nnnc2CN2CCc3ccccc32)cc1,–,inactive: -3.7%
